Some of the results follow.

Binding signal data for 14 molecules are collected here from article PMC12136788.

First the molecules themselves.
B1: chr2:60072322:60072323:+_ENSMUSG00000026977_ENSMUST00000102748|mus_mus|FALSE|FALSE (ssRNA)
RNA: GGGAGUUCUACAGUCCGACGAUCAGAUCUUGUAUUCAAGGAAUCUUGACUAGAUCUUCGUGAGAAAAAAGUAGAUGACAUGCUAGAAGCUAUCCGUGACAGCAAUCUCCUAGUUGUACGCCUACCUUCAUUGUCAGAAGAUUCCAACAGAGGAUUGAGCAUCA
B2: chr4:144460044:144460045:+_ENSG00000153147_ENST00000283131|hu_mus|hu_hu_hu_mus_False|18_78 (ssRNA)
RNA: GGGAGUUCUACAGUCCGACGAUCACGGUCCAUAGCCUGAAGAUCAACUUGCGGAUUCCAAUCAGAAUCAUAUAAAAUGACUACAUCAGCAGUUGCAAGAUUGAUGCCCAGACCACCAGCACGCGUGCUUAGCAUAAAUACAAACAACAGAGGAUUGAGCAUCA
B3: chr8:74858975:74858976:-_ENSG00000154582_ENST00000284811|hu_mus|hu_hu_hu_mus_True|18_108 (ssRNA)
RNA: GGGAGUUCUACAGUCCGACGAUCGACCUUGUACGUAAAAUACAUGCACACUUUUGAUAGCACAUGUGAGGGGAUCUCUCUAAAAUUGACCUCGUUGGUUUCAUUCUCAGCAAACUGACCUGGGCCACUCAACAUAGCCUUUAUCAACAGAGGAUUGAGCAUCA
B4: chr4:144449117:144449118:+_ENSG00000153147_ENST00000283131|hu_hu|motif|central (ssRNA)
RNA: GGGAGUUCUACAGUCCGACGAUCCACUAUUUCUGACAACUUAGAUUUUUCAUUUUUGAUCCUGUGAGCUUCAUCGGUUACGGAGUAUCUCCAAUUAAAUUUUUUGAACACAGACUUCUCUUUAAUAAGCAUUUCAUAAGAUGUCAACAGAGGAUUGAGCAUCA
B5: 108416455_108416656_1812_CDS_ENSMUSG00000032604_ENSMUST00000006838|mouse|control|control (ssRNA)
RNA: GGGAGUUCUACAGUCCGACGAUCAUCAGCUGGGAAAUUUGGCACUCGGAUGUCCAAGGGCUUGGGAGCAGGAAAGUUGGUGAUGACAACUUGUAGUGGCUCUAGAACAGCCAUGGCACGUGGGGCUGCAUCAUUCAGCACAUCCAACAGAGGAUUGAGCAUCA
B6: chr11:52220846:52220847:+_ENSMUSG00000036275_ENSMUST00000036952|mus_mus|motif|central (ssRNA)
RNA: GGGAGUUCUACAGUCCGACGAUCGGGCCUUUCAAAGGGAACACUGCUGCCAGAGGCACAAUAAAUGGAAAAUAAUAAGAACGGCACCAAAGGAUAAAGUAAUGUUUAACUCACAUUUCAGACACCUGAUUGAAUCUAGCUCUACAACAGAGGAUUGAGCAUCA
B7: chr7:7679991:7679992:-_ENSG00000106399_ENST00000396682|hu_hu|hu_hu_hu_mus_False|8_28 (ssRNA)
RNA: GGGAGUUCUACAGUCCGACGAUCUGGGAUGAAUCUUUUCCAGCUUCCCCACGAAGCACACGGGCCGGUCGAUAUACUGUGGUAACAUGCUGGCGUUGACGCGCGCUCUGGGCAAGUGCAUUAUGUCCACCAUGAUUCUGCCGCCAACAGAGGAUUGAGCAUCA
B8: chr1:225611761:225611762:-_ENSG00000143815_ENST00000272163|hu_mus|hu_hu_hu_mus_True|48_58 (ssRNA)
RNA: GGGAGUUCUACAGUCCGACGAUCCCAGGCCAUCGGCCUCUGACCACUUCACCCUCAACAAACUUCCUACUUGGCAUUUUCUAUAAUUAACCUGCGCGCGCUCCGGCGGGAACUCCAGCCACUCCAGGACAGUCACCAGCAGCCCAACAGAGGAUUGAGCAUCA
B9: chr7:141441981:141441982:+_ENSG00000106028_ENST00000265304|hu_mus|hu_hu_hu_mus_False|8_18 (ssRNA)
RNA: GGGAGUUCUACAGUCCGACGAUCCUCAUGUCUUACAAACUGACGAAAUACCUGUAACACAGGUCUUCGAAACAUGGCUUCUGUUUUUCUUACAACCUAAUCUUUAGGCUUUUCCUACCUGACGAUCUAACCCGAGCAAAAUGACAACAGAGGAUUGAGCAUCA
B10: chrX:73036348:73036349:-_ENSMUSG00000016382_ENSMUST00000114059|mus_hu|FALSE|FALSE (ssRNA)
RNA: GGGAGUUCUACAGUCCGACGAUCUGCAUACUUGGCAUUAUUGUGCUUGUCAUCUUCUGUUAGAUUGCCACUCUUCACAAGGUCAUAGUUUAUACAGCCUGGCUGGAUGGCAUCAAUUAAAUCCACAACUGCCAAACUGGAGCUCAACAGAGGAUUGAGCAUCA
B11: chr2:29169617:29169618:+_ENSG00000163811_ENST00000407426|hu_hu|motif|central (ssRNA)
RNA: GGGAGUUCUACAGUCCGACGAUCUAGUUUGACCGGCUUGCUUUGCUGUCUUCAUUCUUCUUCACUUUCAUUUUCAGGAUCGGAAUCAGAAUCUCCAUUUAAUUCUUUUUCACUUGCUGUAUCUCUGUCCUCGCCAUUUUCUUCCAACAGAGGAUUGAGCAUCA
B12: chr9:35067926:35067927:-_ENSG00000165280_ENST00000358901|hu_hu|FALSE|FALSE (ssRNA)
RNA: GGGAGUUCUACAGUCCGACGAUCUGGCUGGAUGCUGAUGACAUCCCCUAGGCGUACACGAAGGUUAUUCCGAACAACUCUAUUCAUCCGAAUCUUCUCAUCAGAACAAGUAUCAUCAGAAAGGACGAUGCAAACAGCUUCUCGCAACAGAGGAUUGAGCAUCA
B13: chr2:48026839:48026840:+_ENSG00000116062_ENST00000540021|hu_hu|hu_hu_hu_mus_False|1_18 (ssRNA)
RNA: GGGAGUUCUACAGUCCGACGAUCAUAGUGAGCCACUAGCGUCCUAAAUCUGGAACAGUGGCGGUCAUCCGAAAACUGGCCGAUGAAAAACUUGCCCAGUGAAGUGUCCACAAAGCACACACCAUAUACACGAGUGUGGCCAGACAACAGAGGAUUGAGCAUCA
B14: chr4:25749455:25749456:-_ENSG00000091490_ENST00000264868|hu_hu|hu_hu_hu_mus_False|1_108 (ssRNA)
RNA: GGGAGUUCUACAGUCCGACGAUCGCAAGCACUAGGAUAGAAAAAUCCACAGGGGGAAAAAAUGUAAACCAAUGUACAAUGUUAUCGCCUUCCCUGUGUGUGGAGUGUUUGUCUCAAGGCUCCUUCUAGCUGCUGGACUGCUAGCAACAGAGGAUUGAGCAUCA

The experiment concerns the target T1, UNK ZnF1-3 (human, UniProt Q9C0B0 31-174).
T1 sequence: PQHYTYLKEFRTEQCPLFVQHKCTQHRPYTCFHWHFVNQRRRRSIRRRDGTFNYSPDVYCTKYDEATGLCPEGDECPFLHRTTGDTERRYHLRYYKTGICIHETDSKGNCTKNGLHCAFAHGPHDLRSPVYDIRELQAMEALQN
The experiment can be described thus: nsRBNS (natural sequence RNA bind-n-seq); RBNS binding buffer (assumed for nsRBNS): 25 mM Tris pH 7.5, 150 mM KCl, 3 mM MgCl2, 0.01% Triton X-100, 500 ug/ml BSA, 20 U/ml SUPERase-In, 4 C; UNK is unkempt and MSI1 is Musashi-1; names of the RNAs are library labels; protein concentration not given here; high values mean tight binding.
Molecule B1 returned a binding signal of 0.303 enrichment R.
B2 had a binding signal of 1.27 enrichment R.
With B3 the figure was 0.704 enrichment R; with B4, 0.939 enrichment R; with B5, 1.3 enrichment R.
With B6 the figure was 2.95 enrichment R; with B7, 0.462 enrichment R.
With B8 the figure was 1.56 enrichment R.
In turn, B9 had a binding signal of 0.715 enrichment R.
With B10 the figure was 0.777 enrichment R; with B11, 0.285 enrichment R; with B12, 0.954 enrichment R.
The figure for B13 is 1.24 enrichment R.
With B14 the figure was 1.26 enrichment R.
